Results from paper PMC6919601, “Identification of Plasmodium dipeptidyl aminopeptidase allosteric inhibitors by high throughput screening” (PLoS ONE, 2019).
The whole screen tested about 110,000 compounds, of which about 230 (0.21%) showed an effect of 50% or more. Some of the results follow.

The molecules below were run against DPAP1 (Plasmodium falciparum, UniProt Q8IIJ9) (assay: primary screen, percent inhibition; read by cleavage of a fluorogenic dipeptide substrate; higher = more effect of the substance).
Parameters: species or system P. falciparum D10 trophozoite lysates; single well
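Further: 30 min substrate incubation versus DMSO and 10 µM JCP410 controls.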

Sequence of DPAP1 (Q8IIJ9 whole entry, looked up): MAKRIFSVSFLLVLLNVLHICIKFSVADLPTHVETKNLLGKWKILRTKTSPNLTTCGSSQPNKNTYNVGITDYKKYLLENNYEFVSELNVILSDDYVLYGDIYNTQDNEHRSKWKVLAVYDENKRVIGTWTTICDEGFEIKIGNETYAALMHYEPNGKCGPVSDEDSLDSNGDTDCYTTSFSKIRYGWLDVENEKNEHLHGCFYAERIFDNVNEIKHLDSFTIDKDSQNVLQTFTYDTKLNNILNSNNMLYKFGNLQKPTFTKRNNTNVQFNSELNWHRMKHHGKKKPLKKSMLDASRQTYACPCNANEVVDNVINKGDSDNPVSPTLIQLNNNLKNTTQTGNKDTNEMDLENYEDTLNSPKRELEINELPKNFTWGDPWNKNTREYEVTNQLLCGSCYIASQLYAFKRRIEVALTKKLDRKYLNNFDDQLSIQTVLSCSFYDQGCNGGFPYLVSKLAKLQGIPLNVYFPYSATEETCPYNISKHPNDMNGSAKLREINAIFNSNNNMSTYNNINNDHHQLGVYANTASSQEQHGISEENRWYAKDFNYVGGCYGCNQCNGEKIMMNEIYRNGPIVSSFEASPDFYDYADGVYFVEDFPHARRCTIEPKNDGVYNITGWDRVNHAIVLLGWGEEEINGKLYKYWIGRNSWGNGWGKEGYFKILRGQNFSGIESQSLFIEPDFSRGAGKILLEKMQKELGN

Point of comparison: `Cc1ccc(C(=O)Nc2ccc(F)cc2F)cc1`, “% Inhibition @ 10 uM” value 3.53%. Against it:
- COc1ccc(CC(=O)NCc2ccco2)cc1OC — lower, -8.7%
- CC1=C(C(=O)N(CC2CC=CCC2)CC2CCCO2)C2(CCCCC2)OC1=O (stereo not drawn) — lower, -9.55%
- O=C1CSCc2nc3ccccc3n21 — lower, -2.51%
- NC(=O)C1CCCN(Cc2cccc(Br)c2)C1 (stereo not drawn) — lower, -2.34%
- COCCNC(=O)c1cc(Sc2ccc(Cl)cc2)nc2ccccc12 — lower, -5.57%
- Cc1ccc2nc3c(c(N)c2c1)CCN3c1ccccc1 — lower, 0.266%
- CCN(Cc1ccccc1)C(=O)c1ccc(C)c([N+](=O)[O-])c1 — lower, 2.46%
- Cc1nn(Cc2ccccc2Cl)c(C)c1NC(=O)c1ccccc1 — lower, -3.98%
- CC(C)(C)NS(=O)(=O)c1ccc(NS(=O)(=O)c2cc(Cl)ccc2Cl)cc1 — lower, -2.85%
- Cc1nn(C(C)C(=O)NCCCN(Cc2ccccc2)C(C)C)c(=O)c2c1sc1ccccc12 (stereo not drawn) — lower, 1.61%
- Cc1cc(C(=O)NC2CC2)n(-c2ccccc2)n1 — lower, 1.55%
- CCC1CCCCN1C(=O)CSc1nc(O)c2cnn(-c3ccc(Cl)cc3)c2n1 (stereo not drawn) — lower, -3.35%
- CCCCN(C)CCCNC(=O)CSCc1ccccc1Cl — lower, -2.01%
- Cc1cc(C)n(C(=O)c2ccc(C)c(Br)c2)n1 — lower, -5.51%
- N#C/C(=C\c1cccc([N+](=O)[O-])c1)C(N)=O — lower, -2.72%
- COc1ccc(C2(C(=O)Nc3ccc(Br)cc3)CCOCC2)cc1 — lower, -3.04%
- COc1ccc(-c2noc(CN(C(=O)c3ccc(C(C)(C)C)cc3)C(C)C)n2)cc1 — lower, 3.33%
- Cc1cc(C)nc(NS(=O)(=O)c2ccc(N/C=C3\CCCC3=O)cc2)n1 — lower, -4.68%
- Cc1ccc(CNC(=O)CCc2nnc3n(CC(C)C)c(=O)c4ccccc4n23)cc1 — lower, -0.692%
- C=CCc1ccccc1Oc1cc(OC)nc(N)n1 — lower, 1.9%
- Cc1cc(C)c2c(n1)SCC(=O)N2CCCC(=O)NCc1ccc2c(c1)OCO2 — lower, -7.93%
- CN(Cc1ccccc1)C(=O)C1c2ccccc2C(=O)N(C)C1c1c[nH]c2ccccc12 (stereo not drawn) — higher, 13.8%
- CC(=O)c1ccc(NC(=O)CN(C(C)=O)c2ccccc2)cc1 — lower, 2.27%
- CCOC(=O)/C(C#N)=C/c1cc2c(cc1[N+](=O)[O-])OCO2 — lower, -4.02%
- COC(=O)c1ccc(-c2ccccc2)[nH]1 — lower, -3.53%
- COc1ccc(C(=O)N(Cc2ccc(C(C)(C)C)cc2)Cc2ccco2)cc1 — lower, -1.07%
- N#CC1=C(N)N(c2cccc(C(F)(F)F)c2)C2=C(C(=O)CCC2)C1c1cccs1 (stereo not drawn) — lower, -0.305%
- O=C(NCc1ccco1)c1ccccc1F — lower, 3.16%
- NC(=O)c1c(NC(=O)Nc2ccccc2)sc2c1CCCC2 — lower, 2.27%
- CCCC1=C(C(=O)OCC)C(c2cccc(Cl)c2Cl)C(C#N)=C(N)O1 (stereo not drawn) — lower, -1.38%
- CCOc1ccc(-n2cc(-c3ccccc3)c3c(NCCCOC)ncnc32)cc1 — lower, -3.74%
- CCOc1ccccc1CNC(=O)NCc1noc2ccccc12 — lower, -2.55%
- O=[N+]([O-])c1ccc(S(=O)(=O)Nc2ccc(F)cc2)cc1 — lower, 1.91%
- CCOc1ccc2nc(NC(=O)C3CCN(S(=O)(=O)c4c[nH]cn4)CC3)sc2c1 — lower, 2.9%
- CC(COc1ccc2c(c1)OCO2)NC(=O)c1cnccn1 (stereo not drawn) — lower, -2.84%
- COc1cc(CNC2CCCCC2OC)cc(OC)c1OC (stereo not drawn) — lower, 1.88%
- C(=C\c1ccccc1)/CN1CCN(CCCc2ccccc2)CC1 — lower, 2.7%
- CC1CC(Nc2ccccc2)c2ccccc2N1C(=O)c1ccco1 (stereo not drawn) — lower, -5.96%
- N#CCC(=O)/N=C/c1ccc(Cl)cc1Cl — lower, 1.12%
- CCOC(=O)N1CCN(C2CCC(C(C)(C)C)CC2)CC1 (stereo not drawn) — lower, -1.81%
- CCOC(=O)c1c(C)[nH]c(C)c1S(=O)(=O)N1CCC(C(=O)NC2CCCCCC2)CC1 — lower, -0.695%
- COc1ccc(N2CCN(C3CC(=O)N(c4ccc5c(c4)OCCO5)C3=O)CC2)cc1 (stereo not drawn) — lower, -2.67%
- O=C1CN(S(=O)(=O)c2ccccc2)CC1NC(=O)[C@H](CS(=O)(=O)Cc1ccccc1)NC(=O)N1CCOCC1 (stereo partly drawn) — lower, 3.19%
- CCc1ccc(OCC(O)CNC2CC(C)(C)NC(C)(C)C2)cc1 (stereo not drawn) — lower, -3.93%
- C1=CCC(CN2CCCCC2c2cccnc2)CC1 (stereo not drawn) — lower, -3.27%
- Cc1c(C(=O)NCC2COc3ccccc3O2)oc2ccc(S(=O)(=O)N3CC(C)CC(C)C3)cc12 (stereo not drawn) — lower, 1.14%
- Cc1cccc(NS(=O)(=O)c2ccc(-c3ccccc3)cc2)c1 — lower, -0.507%
- Cc1ccc(CCNC(=O)C2CCCN(c3nnc(-n4cccc4)s3)C2)cc1 (stereo not drawn) — lower, 1.15%
- CCOC(=O)C1CCN(Cc2ccc(OC)c(C)c2C)CC1 — lower, -0.197%
- Cc1ccsc1CCN1CSC2=C(C#N)C(c3ccc(Cl)cc3)CC(=O)N2C1 (stereo not drawn) — higher, 51.6%
